Measured values published in PubChem BioAssay AID2202238 (Ras Initiative Chemistry Research Team, Frederick National …, 2025).
Some of the results follow. Further columns of the screen follow, without active or inactive calls.

Biological target: GTPase KRas (Homo sapiens) (UniProt P01116)
Experiment: Cysteine mutants labelled by reactive fragments (mass read-out) (AID 2202238)
Parameters: protein at 5 µM with 500 µM competing thiol for 1.5 h
Conditions: KRAS G12D cysteine mutants, disulfide tethering, MALDI-TOF labeling, stronger effect = higher value, fragment at 500 µM
[1] = measured here: G75C mutant labeling
[2] = measured here: H94C mutant labeling
[3] = measured here: I36C mutant labeling
[4] = measured here: L120C mutant labeling
[5] = measured here: M67C mutant labeling
[6] = measured here: M72C mutant labeling
[7] = measured here: N86C mutant labeling
[8] = measured here: P121C mutant labeling
[9] = measured here: S122C mutant labeling
[10] = measured here: S136C mutant labeling
[11] = measured here: G60C mutant labeling
[12] = measured here: N26C mutant labeling

UniProt P01116, sequence (P01116 whole entry, looked up, the tested form may be a part): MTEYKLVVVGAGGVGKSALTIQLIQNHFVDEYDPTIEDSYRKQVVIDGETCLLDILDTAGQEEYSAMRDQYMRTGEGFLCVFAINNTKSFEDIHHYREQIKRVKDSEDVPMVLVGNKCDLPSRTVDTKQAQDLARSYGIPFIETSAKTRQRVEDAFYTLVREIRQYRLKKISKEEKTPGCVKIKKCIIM

| Compound | percent labeling [1] [%] | percent labeling [2] [%] | percent labeling [3] [%] | percent labeling [4] [%] | percent labeling [5] [%] | percent labeling [6] [%] | percent labeling [7] [%] | percent labeling [8] [%] | percent labeling [9] [%] | percent labeling [10] [%] | percent labeling [11] [%] | percent labeling [12] [%] |
| --- | --- | --- | --- | --- | --- | --- | --- | --- | --- | --- | --- | --- |
| COc1ccc(-c2csc(CCNC(=O)CCS)n2)cc1 | 7 | 25.6 | 25.6 | 6.4 | 22.5 | 18 | 8.7 | 13.3 | 11.8 | 29.5 |  |  |
| O=C1C[C@H](C(=O)NCCS)C[C@H](c2ccccc2)N1 | 13.8 | 27.9 | 26.7 | 37.4 | 40.7 | 23.8 | 17.7 | 34.8 | 29.2 | 69.6 | 32.3 | 37.3 |
| O=C(Cc1ccccc1C(=O)NCCS)Nc1cccnc1 | 15 | 36.9 | 22.8 | 22.5 | 30.9 | 20 | 25.5 | 30.6 | 21.3 | 35.2 | 35.3 | 32.5 |
| Cc1cc(C)c2c(OCC(=O)NCCS)nn(C)c2n1 | 15.2 | 23.9 | 17.3 | 26.6 | 30.4 | 46.7 | 16.2 | 19 | 17.2 | 36.2 | 30.1 | 48.2 |
| O=C(NCCS)C1(c2cc(Cl)ccc2F)CCC1 | 11.5 | 11.7 | 14.9 | 25.9 | 16.8 | 31.2 | 16.2 | 17.9 | 18.4 | 28.1 | 34.4 | 28.1 |
| CC(=O)NCC1(CC(=O)NCCS)CCCCC1 | 13.5 | 37.9 | 20.8 | 36 | 36 | 16.1 | 30.2 | 31.2 | 31.9 | 48.6 | 33.5 | 33 |
| Cc1cc(C(=O)NCCS)nc2[nH]c(=O)[nH]c(=O)c12 | 14 | 33.1 | 29.6 | 52.3 | 32 | 32 | 29.8 | 36.3 | 35.8 | 53.5 | 34.8 | 47.7 |
| Cc1nn(CC(F)F)cc1NC(=O)CCS | 12.8 | 30.7 | 40.7 | 28.8 | 29.3 | 27.1 | 32.5 | 29.6 | 36.2 | 48.4 |  |  |
| Cc1ccc(-c2csc(C(=O)NCCS)c2-n2cccc2)cc1 | 29.5 | 25.2 | 18.4 | 22.8 | 13.2 | 82.8 | 12.3 | 18.3 | 7.2 | 38 | 50.2 | 19.1 |
| CC(C)NC(=O)c1cnn2c1CC(CNC(=O)CCS)CC2 (stereo not drawn) | 7.4 | 31.8 | 34.1 | 21.8 | 37.4 | 15.3 | 21.6 | 26.1 | 29.4 | 48.8 |  |  |
| O=C(CCS)NC(c1ccccc1)c1ccccc1 | 11.7 | 20.7 | 22.1 | 18.7 | 17.5 | 28.3 | 13 | 21.2 | 17.9 | 51.2 |  |  |
| O=C(NCCS)c1ccc(-c2cccc(OC(F)(F)F)c2)s1 | 12.3 | 8.2 | 4.1 | 5.1 | 0 | 34.9 | 6.7 | 4.5 | 2 | 3.6 | 13.5 | 11.5 |
| O=C(NCCS)c1ccc(F)cc1Cl | 26.5 | 42.7 | 29.3 | 39.8 | 30.5 | 47.1 | 32.3 | 45.9 | 34.6 | 47.8 | 63.3 | 45 |
| O=C(NCCS)c1cccc(I)c1 | 15 | 26.2 | 14 | 17.3 | 14.7 | 35.3 | 15.9 | 14.9 | 11.8 | 21.3 | 43.4 | 32.1 |
| O=C(CCS)N1CCC(c2cc(=O)[nH]c(=O)[nH]2)C1 (stereo not drawn) | 18.5 | 27.2 | 41.3 | 25.4 | 45.8 | 20.2 | 31.5 | 30.9 | 32 | 52.9 |  |  |
| Cc1cnc(C(C)(C)NC(=O)CCS)s1 | 12.7 | 36.6 | 37.5 | 27.2 | 31.3 | 20.1 | 21.7 | 38.4 | 31.6 | 54.7 |  |  |
| O=C(NCCS)C1CC(OCc2ccccc2)C1 (stereo not drawn) | 14.6 | 31.8 | 29 | 36.7 | 37.2 | 33.1 | 20.8 | 31.2 | 27.4 | 57.1 | 32.5 | 41.8 |
| Cn1[nH]c(=O)c2c(C(=O)NCCS)cc(C3CC3)nc21 | 20.2 | 29.4 | 18.5 | 55.1 | 26.8 | 37.6 | 32.6 | 33.4 | 37.9 | 64.4 | 55.5 | 37.7 |
| O=C(CCS)Nc1cc(Cl)c2c(c1)OCCO2 | 21.4 | 25.1 | 19.3 | 25.8 | 20.6 | 56.6 | 12.9 | 15.9 | 19.9 | 34.6 |  |  |
| O=C(NCCS)C(=O)c1c[nH]c2ccccc12 | 25.2 | 12.5 | 16.7 | 10.5 | 13.7 | 54.1 | 13.5 | 44.8 | 11.3 | 26.4 | 27.6 | 32.7 |
| O=C(CCS)NCC1c2ccccc2C(=O)N1Cc1ccccc1 (stereo not drawn) | 10 | 37.2 | 31.3 | 19.3 | 28.9 | 24.3 | 20.5 | 21.8 | 25.9 | 45.8 |  |  |
| Cc1ccc(-c2nc(C(=O)NCCS)cs2)n1C | 7.5 | 15.2 | 8.6 | 15.5 | 9.6 | 14 | 6.7 | 12.1 | 8.8 | 13.8 | 15.4 | 16.3 |
| CCN(CC1CCC(C(=O)OC)CC1)C(=O)CCS (stereo not drawn) | 12.5 | 40.9 | 32.8 | 35.8 | 38.8 | 30 | 49.4 | 33.7 | 34.1 | 58.6 |  |  |
